# Source: paper PMC4336329 (PLoS ONE, 2015)
# Out of some 310,000 compounds screened, about 14,000 (4.5%) showed an effect of 50% or more. Effects have a minus sign here. Some of the results follow.
# Target: human ether-à-go-go-related gene (hERG) potassium channel (human, UniProt Q12809)
# Assay: primary screen, population patch clamp on CHO cells stably expressing hERG
# 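Also: peak tail current of the secondary pulse compared with the same well before compound.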
# Chain of human ether-à-go-go-related gene (hERG) potassium channel (Q12809 whole entry, looked up): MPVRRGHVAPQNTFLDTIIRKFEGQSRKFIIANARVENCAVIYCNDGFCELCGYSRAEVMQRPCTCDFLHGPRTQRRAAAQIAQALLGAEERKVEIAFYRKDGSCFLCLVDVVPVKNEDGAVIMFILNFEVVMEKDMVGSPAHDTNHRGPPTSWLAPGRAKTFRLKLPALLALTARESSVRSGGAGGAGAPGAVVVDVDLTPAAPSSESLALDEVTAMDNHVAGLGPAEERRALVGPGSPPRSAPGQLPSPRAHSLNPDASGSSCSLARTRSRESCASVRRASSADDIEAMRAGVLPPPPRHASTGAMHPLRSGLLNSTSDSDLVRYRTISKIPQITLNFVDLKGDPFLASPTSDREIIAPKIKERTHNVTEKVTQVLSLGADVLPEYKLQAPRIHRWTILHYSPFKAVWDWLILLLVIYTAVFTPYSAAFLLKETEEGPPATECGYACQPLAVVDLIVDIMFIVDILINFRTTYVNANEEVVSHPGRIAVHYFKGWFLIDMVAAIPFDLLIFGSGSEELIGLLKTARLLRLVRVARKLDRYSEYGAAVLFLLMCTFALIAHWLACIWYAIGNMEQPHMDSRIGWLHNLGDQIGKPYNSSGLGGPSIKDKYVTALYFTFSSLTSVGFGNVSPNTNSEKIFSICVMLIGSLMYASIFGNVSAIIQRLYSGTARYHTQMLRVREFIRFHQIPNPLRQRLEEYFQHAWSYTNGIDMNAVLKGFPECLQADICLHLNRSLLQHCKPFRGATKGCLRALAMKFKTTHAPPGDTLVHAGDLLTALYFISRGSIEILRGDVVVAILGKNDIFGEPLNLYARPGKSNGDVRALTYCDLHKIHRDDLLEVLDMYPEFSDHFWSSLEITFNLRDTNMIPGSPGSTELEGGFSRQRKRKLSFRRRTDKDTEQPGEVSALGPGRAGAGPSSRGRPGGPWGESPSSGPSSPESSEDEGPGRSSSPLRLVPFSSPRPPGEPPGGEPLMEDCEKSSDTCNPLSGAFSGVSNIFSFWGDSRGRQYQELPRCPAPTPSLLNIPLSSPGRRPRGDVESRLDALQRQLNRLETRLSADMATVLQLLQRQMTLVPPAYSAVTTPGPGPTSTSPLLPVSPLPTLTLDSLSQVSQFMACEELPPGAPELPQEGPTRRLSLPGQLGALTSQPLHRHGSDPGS
row,SMILES,"hERG current change (%, negative = inhibition) at 10uM [%]"
1,C/C(=N\Nc1cc(Cl)nc(C)n1)c1ccc(Cl)c(Cl)c1,-7.27
2,O=c1c(Br)c(N2CCCC2)cnn1-c1ccccc1,4.57
3,Cc1ccccc1NC1=NC(=S)N(c2ccccc2)C12CCCCC2,10.6
4,COC(=O)C1=NNC2C(=O)N(c3ccc(C)cc3)C(=O)C12 (stereo not drawn),32.2
5,COc1cc2cc(CN(CCCO)S(=O)(=O)c3ccccc3)c(=O)[nH]c2cc1OC,-16.7
6,O=C(CSc1ccc(-c2cccs2)nn1)NCc1ccccc1Cl,-28.7
7,Cc1cc(C(=O)CS(=O)(=O)c2ccc(Cl)cc2)cc(C)c1O,16.6
8,O=S(=O)(NC1CCCC1)c1ccc(Br)s1,-1.55
9,S=c1[nH]nc(-c2ccccn2)n1/N=C/c1ccccc1,14.3
10,CCOC(=O)c1c(NC(=O)CSc2c[nH]c3ccccc23)sc2c1CCCC2,15.5
11,CCN(CC)S(=O)(=O)c1ccc(N2CCOCC2)c(NC(=O)c2cc([N+](=O)[O-])ccc2Cl)c1,17.2
12,CC(=O)Nc1ccc(S(=O)(=O)N(C)CC(=O)OC2CCCCC2=O)cc1 (stereo not drawn),-5.35
13,O=C(CSc1nc2ccccc2c(=O)[nH]1)N1CCN(c2ccccc2F)CC1,9.44
14,COc1ccc(S(=O)(=O)N2CCOCC2)cc1C(=O)NC1CCCCC1,6.05
15,Nc1nc(COc2ccc(Cl)cc2)cs1,-0.505
16,C=CCNC(=O)c1ccccc1NC(=O)c1ccccc1SC,-19.8
17,CCc1nnc(NC(=O)NCN2C(=O)C3C4C=CC(C4)C3C2=O)s1 (stereo not drawn),1.86
18,Cc1ccc(CNC(=O)C(=O)NCC2OCCN2C(=O)c2ccc(Cl)cc2)cc1 (stereo not drawn),-13
19,C[n+]1cccc(C(=O)N/N=C/c2ccc3c(c2)OCO3)c1.[I-],16.9
20,CC1CCCN(S(=O)(=O)c2ccc(NC(=O)CN3CCCCC3)cc2)C1 (stereo not drawn),-37.6
21,Cc1noc(C(=O)Nc2cc(Cl)ccc2O)c1Cl,31.5
22,O=C(Cc1c(F)cccc1Cl)Nc1ccc(S(=O)(=O)Nc2nccs2)cc1,16.4
23,Cc1ccc(NC(=O)c2nc[nH]c2C(=O)N(C)Cc2ccccc2)cc1,-4.42

row,SMILES,"hERG current change (%, negative = inhibition) at 10uM [%]"
1,COc1ccccc1Oc1c(C)oc2c(CN3CCN(CCO)CC3)c(O)ccc2c1=O,14.8
2,Cc1cccc2c(CC(=O)O)noc12,-0.934
3,COc1ccc(CCNC(=O)c2ccc3c(c2)NC(=O)C(CSCc2cc(C)ccc2C)N3)cc1OC (stereo not drawn),12.2
4,CC(C)C(NC(=O)c1ccccc1NC(=O)c1ccccc1)C(=O)NNC(=O)c1ccncc1 (stereo not drawn),2.91
5,CCCn1nnnc1SCC(=O)Nc1nnc(CC)s1,12
6,Cc1ccccc1N(C)S(=O)(=O)c1ccc2[nH]cc(C(=O)NCC3CCCO3)c(=O)c2c1 (stereo not drawn),-24
7,CC1Oc2ccccc2C=C1/C=N/NC(=O)[C@@H](C)NC(=O)OC(C)(C)C (stereo partly drawn),-8.91
8,Cc1nc2ccccn2c1-c1nnco1,5.42
9,CCNC(=S)N1CCC(Cc2ccccc2)CC1,9.93
10,CCOC(=O)/C(C#N)=C(C)/C=C1\Sc2ccccc2N1CC,-15.7
11,CN1CCc2c(sc3c2c(=O)n(-c2ccccc2)c2nncn32)C1,4.92
12,O=C(CSc1n[nH]c(-c2cccs2)n1)NCc1ccc2c(c1)OCO2,-13.3
13,O=C(Cc1ccccc1)NC1(O)C(=O)c2ccccc2C1=O,9.43
14,c1ccc2c(c1)ncn2-c1ccc(-c2ccnc3ncnn23)cc1,-68
15,COc1ccc(NC(=O)/C=C/C(=O)O)c([N+](=O)[O-])c1,-10.9
16,CCC(C)(C)NC(=O)CN(Cc1ccc(F)cc1)C(=O)CCC(=O)Nc1ccccn1,-12.8
17,CCOc1ccccc1C(=O)NCC(=O)NCc1ccc(S(=O)(=O)N2CCOCC2)cc1,-3.71
18,O=C(N/N=C/c1cc(Br)c(O)c(Br)c1)C1CC1,0.456
19,Cc1cc(C)cc(NS(=O)(=O)c2ccc(F)cc2)c1,2.69
20,Cc1nn(Cc2c(Cl)cccc2Cl)c(C)c1NC(=O)c1cc(C(C)C)on1,12.7
21,CN=C1SC(CC(=O)Nc2ccccc2F)C(=O)N1C (stereo not drawn),19.3
22,Cc1ccc(S(=O)(=O)N(C)CC(=O)N2CCN(Cc3ccc4c(c3)OCO4)CC2)cc1,-66.6
23,CSc1ccccc1OCc1cc(C(=O)N2CCc3sccc3C2)no1,7.47

row,SMILES,"hERG current change (%, negative = inhibition) at 10uM [%]"
1,O=C(CSc1ccc(/C=N/NC(=O)c2cccc(F)c2)o1)Nc1ccccc1,4.96
2,CCOCCCNC(=O)c1ccc2nc(-c3ccc(OC)c(OC)c3)c(-c3ccc(OC)c(OC)c3)nc2c1,6.99
3,O=C(Nc1cccnc1)c1ccc(Br)s1,-2.68
4,CC1(C)COC(Nc2cccc(Cl)c2)=N1,14.7
5,CCCOc1ccc(C(=O)NC(=S)Nc2nc(C)c(C(=O)N(C)C)s2)cc1,0.536
6,Cn1c(CC(=O)NNC(=O)c2ccc(F)cc2F)nc2ccccc21,-7.56
7,Cc1cc(C)cc(N2C(=O)CC(c3ccccc3)CC2=O)c1,5.14
8,CNc1cc([N+](=O)[O-])ccc1OCc1ccccc1,1.03
9,COc1cccc(OCC(=O)O/N=C(\N)c2ccncc2)c1,18.9
10,Cc1ccc(NC(=S)NC2CC3CCC(C2)N3Cc2ccco2)cc1C (stereo not drawn),-36.1
11,COc1ccccc1C(=O)Nc1ccnn1C1CCN(Cc2csc(C(C)=O)c2)CC1,-72.9
12,C/C(=C\C(=O)Nc1nccs1)c1ccccc1,0.853
13,CCOCCCn1cnc2c(c1=O)c1nc3ccccc3nc1n2-c1ccccc1,-30.6
14,COC(=O)CCC(=O)N1CCCC(N2CCN(c3ccc(OC)cc3)CC2)C1 (stereo not drawn),-1.47
15,COc1ccc(C(=O)CC(=O)C(=O)Nc2cccc(F)c2)cc1,4.74
16,CC(SCc1ccccc1)C(=O)Nc1ccc2c(c1)OCO2 (stereo not drawn),-7.49
17,Cc1cc2cc(CN(CCCN3CCOCC3)C(=O)NC3CCCCC3)c(=O)[nH]c2cc1C,-37.8
18,Cc1nnc(NC(=O)CSc2nnc(-c3ccoc3C)n2CC(C)C)s1,5.79
19,Clc1ccc(/C(Cc2nc3ccccc3[nH]2)=N\Nc2ccccc2)cc1,-0.238
20,c1ccc(-c2cccc(-c3ccccn3)n2)nc1,0.0807
21,Cc1ccccc1OCCCC(=O)Nc1ccc(Br)cc1,5.24
22,Cc1ccccc1-n1ncc2c1CC(C)(C)CC2NC(=O)CN1CCCC1=O (stereo not drawn),9.7
23,CCOC(=O)Cc1csc2nc(-c3ccccc3)nn12,16.8

row,SMILES,"hERG current change (%, negative = inhibition) at 10uM [%]"
1,N#C/C(=C\c1ccncc1)c1nc2ccccc2c(=O)[nH]1,8.11
2,CCNc1nc(OCCNC(C)=O)nc(N(C)C)n1,22
3,O=[N+]([O-])C(=C1NCCN1)C(Cl)=C(Cl)Cl,25.7
4,CCCCOc1ccc(C(O)C(CN2CCOCC2)c2ccccc2)cc1.Cl (stereo not drawn),-0.996
5,O=C(NCC(c1ccco1)N1CCc2ccccc2C1)C(=O)Nc1ccccc1 (stereo not drawn),4.12
6,O=C(c1cnn2c(C(F)(F)F)cc(-c3ccc4c(c3)OCO4)nc12)N1CCCCC1,1.33
7,CC(C)C1N(C(=O)N2CCOCC2)CCN1S(=O)(=O)c1ccccc1 (stereo not drawn),6.8
8,O=C(c1ccc(CN2CCc3ccccc3C2)cc1)N1CCN(c2ccccc2)CC1,-46.3
9,COc1cc(/C=N\Nc2nncn2N)ccc1OC(C)=O.Cl,17.5
10,NS(=O)(=O)c1cccc(NC(=O)CN2CCC(Cc3ccccc3)CC2)c1,-11.2
11,COC(=O)c1c([N+](=O)[O-])c(OC)c(OC)c(OC)c1[N+](=O)[O-],16.3
12,COc1cc(OC)c(NC(=O)Cc2ccc(OC)c(S(=O)(=O)N3CCOCC3)c2)cc1Cl,1.06
13,CCCCCCO,26.4
14,C[C@]12C=CC(=O)C=C1CC[C@@H]1C2=CC[C@]2(C)[C@@H](C(=O)CN3CCN(c4cc(N5CCCC5)nc(N5CCCC5)n4)CC3)CC[C@@H]12.O=C(O)/C=C\C(=O)O,-10.8
15,COCCN(C(=O)c1cccc(OC)c1)c1nnc(-c2ccncc2)s1,-14.1
16,CCCCNC(=O)c1ccc(NS(=O)(=O)c2ccc3[nH]c(=O)[nH]c3c2)cc1,24.4
17,S=c1[nH]nc(-c2ccc3ccccc3n2)n1-c1ccc2ncccc2c1,12.3
18,CC(C)OC1CCCC(O)C1CC(=O)O (stereo not drawn),9.79
19,O=C(NNc1cccc(Cl)n1)C1CC1,37.4
20,CC(C)COc1ccc(-c2nnc(-c3ccco3)o2)cc1,-10.6
21,CCc1nc(C)cn1S(=O)(=O)c1cc(C)c(OC)cc1C,-3.83
